No constants are given. Whether binding was seen depends on the method and setting. For some assays here: Binding seen in cells or lysates may run through a third protein. Some binding calls cover weakened binding; strength is not graded here. For some assays here: Where a sequence is shown, tags or fusion partners need not be part of it.
Legend:
[1] = molecular target: PACRG (Parkin co-regulated gene protein), full-length mouse coding sequence in pGBKT7 (mouse) (UniProt Q9DAK2); test: two-hybrid; direct assay: pairs of plasmids co-transformed into AH109 yeast; growth on selection plates lacking leucine, histidine and tryptophan
[2] = molecular target: PACRG/Myc (mouse Pacrg cDNA in pCS2+ MT) (mouse) (UniProt Q9DAK2); test: co-IP; COS-1 cells co-transfected with DNALI1/FLAG and PACRG/Myc; lysate immunoprecipitated with anti-MYC antibody, protein A beads, 4°C; blots with anti-MYC and anti-FLAG; mouse normal IgG as control
[3] = molecular target: His-tagged PACRG (full-length mouse Pacrg in the upstream site of pCDFDuet-1) (mouse) (UniProt Q9DAK2); test: pull-down; co-purification: His-tagged PACRG and non-tagged DNALI1 co-expressed in bacteria; His-tagged PACRG purified from the lysate by nickel affinity chromatography; fractions examined by western blot
[4] = molecular target: PACRG, endogenous in mouse testis (mouse (endogenous in testis)) (UniProt Q9DAK2); test: co-IP; mouse testis extract (150 mM NaCl, 50 mM Tris-HCl pH 8.0, 5 mM EDTA, 1% Triton X-100) immunoprecipitated with anti-PACRG antibody, protein A beads, 4°C; blot with anti-DNALI1
[5] = molecular target: T1, DNALI1/FLAG (mouse Dnali1 cDNA in pCS3+ FLT) (mouse) (UniProt Q8BVN8); test: co-IP; COS-1 cells co-transfected with DNALI1/FLAG and MEIG1; lysate immunoprecipitated with anti-Flag antibody; blots with anti-Flag and anti-MEIG1; mouse normal IgG as control
T1 sequence: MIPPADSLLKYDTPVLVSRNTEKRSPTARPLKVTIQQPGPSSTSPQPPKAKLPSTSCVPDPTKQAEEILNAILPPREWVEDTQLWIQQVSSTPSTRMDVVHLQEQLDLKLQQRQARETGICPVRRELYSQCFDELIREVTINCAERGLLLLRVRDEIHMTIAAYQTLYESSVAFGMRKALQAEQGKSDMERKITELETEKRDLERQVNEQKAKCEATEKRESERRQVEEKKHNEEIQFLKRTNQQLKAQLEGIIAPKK

Amino acid sequences for entries named in this document (tags omitted).
UniProt Q9DAK2: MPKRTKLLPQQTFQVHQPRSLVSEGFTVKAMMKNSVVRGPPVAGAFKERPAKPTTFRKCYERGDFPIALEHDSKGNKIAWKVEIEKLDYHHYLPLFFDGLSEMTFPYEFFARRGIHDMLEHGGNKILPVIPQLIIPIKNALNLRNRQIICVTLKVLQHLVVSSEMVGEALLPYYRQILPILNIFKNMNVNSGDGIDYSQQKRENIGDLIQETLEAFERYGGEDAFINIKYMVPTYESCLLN

B1: DNALI1 (axonemal dynein light intermediate polypeptide 1), mouse coding sequence in pGAD-T7 (protein, UniProt Q8BVN8 1-258)
chain: MIPPADSLLKYDTPVLVSRNTEKRSPTARPLKVTIQQPGPSSTSPQPPKAKLPSTSCVPDPTKQAEEILNAILPPREWVEDTQLWIQQVSSTPSTRMDVVHLQEQLDLKLQQRQARETGICPVRRELYSQCFDELIREVTINCAERGLLLLRVRDEIHMTIAAYQTLYESSVAFGMRKALQAEQGKSDMERKITELETEKRDLERQVNEQKAKCEATEKRESERRQVEEKKHNEEIQFLKRTNQQLKAQLEGIIAPKK
binding [1]: binds

B2: DNALI1/FLAG (mouse Dnali1 cDNA in pCS3+ FLT) (protein, UniProt Q8BVN8 1-258)
chain: MIPPADSLLKYDTPVLVSRNTEKRSPTARPLKVTIQQPGPSSTSPQPPKAKLPSTSCVPDPTKQAEEILNAILPPREWVEDTQLWIQQVSSTPSTRMDVVHLQEQLDLKLQQRQARETGICPVRRELYSQCFDELIREVTINCAERGLLLLRVRDEIHMTIAAYQTLYESSVAFGMRKALQAEQGKSDMERKITELETEKRDLERQVNEQKAKCEATEKRESERRQVEEKKHNEEIQFLKRTNQQLKAQLEGIIAPKK
binding [2]: binds

B3: DNALI1, non-tagged (full-length mouse Dnali1 in the downstream site of pCDFDuet-1) (protein, UniProt Q8BVN8 1-258)
chain: MIPPADSLLKYDTPVLVSRNTEKRSPTARPLKVTIQQPGPSSTSPQPPKAKLPSTSCVPDPTKQAEEILNAILPPREWVEDTQLWIQQVSSTPSTRMDVVHLQEQLDLKLQQRQARETGICPVRRELYSQCFDELIREVTINCAERGLLLLRVRDEIHMTIAAYQTLYESSVAFGMRKALQAEQGKSDMERKITELETEKRDLERQVNEQKAKCEATEKRESERRQVEEKKHNEEIQFLKRTNQQLKAQLEGIIAPKK
binding [3]: binds

B4: DNALI1, endogenous in mouse testis (protein, UniProt Q8BVN8 1-258)
chain: MIPPADSLLKYDTPVLVSRNTEKRSPTARPLKVTIQQPGPSSTSPQPPKAKLPSTSCVPDPTKQAEEILNAILPPREWVEDTQLWIQQVSSTPSTRMDVVHLQEQLDLKLQQRQARETGICPVRRELYSQCFDELIREVTINCAERGLLLLRVRDEIHMTIAAYQTLYESSVAFGMRKALQAEQGKSDMERKITELETEKRDLERQVNEQKAKCEATEKRESERRQVEEKKHNEEIQFLKRTNQQLKAQLEGIIAPKK
binding [4]: binds

B5: MEIG1 expressed in COS-1 cells (protein, UniProt Q61845 1-88)
chain: MATSDVKPKSISRAKKWSEEIENLYRFQQAGYRDEIEYKQVKQVAMVDRWPETGYVKKLQRRDNTFFYYNKERECEDKEVHKVKVYVY
binding [5]: no binding

From PMC10185345
